PubChem BioAssay AID662 (National Center for Advancing Translational Sciences (NCATS), 2007)
Among all 71,000 compounds or so, about 1,800 (2.5%) were called active. Inconclusive means that the source gave no clear call. Such entries were picked first, then a sample of the others. Calls come from the whole dose curve; as a rule, active = well fitted activation curve with a large enough effect in the signal ratio, with a control signal flat (not every such curve was filed as active); inconclusive = small, poorly fitted or top-dose-only effect, or effect the other way, or a change in a side signal; inactive = flat fitted curve, though single readings scatter; the % refers to the signal ratio. Potencies of inconclusive entries are doubtful fits and often do not repeat.

assay: Cell signaling CRE-BLA (Fsk stim); conditions: CHO CRE-bla reporter (cAMP response element driving beta-lactamase), forskolin EC10, beta-lactamase ratio; activity change, negative = inhibition: at 38.2 µM (top of the series) unless noted; for activity change, negative = inhibition: % of control where 0% means no effect
Summary of the method: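 Modulation of forskolin signalling: compounds in titration series added with EC10 NKH 477 to CHO cells carrying a CRE-driven beta-lactamase reporter, 3 h, 37C. CCF4 FRET ratio (460/530 nm, ex 405 nm) gives %activity and AC50.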
Potency is the fitted concentration of half-maximal effect; tags give direction and shape of the fitted curve.

SMILES	activity change, negative = inhibition	Potency
Cn1c(SCc2nc3ccccc3[nH]2)nnc1-c1cccnc1	inconclusive: 12.7%	
COc1ccc(N2CCN(C(=O)c3ccc(NS(=O)(=O)c4ccc(F)cc4)cc3)CC2)cc1	inconclusive: 16.7%	
CC1CC(C)(C)Nc2ccc(OC(=O)c3ccco3)cc21 (stereo not drawn)	inconclusive: -6.94% [cytotoxic]	
Cc1cccc(NC(=O)CCN2C(=O)C3C4C=CC(C4)C3C2=O)n1 (stereo not drawn)	inconclusive: -3.18%	
CCN1c2ccccc2-c2nc3ccccc3n2C1c1ccncc1 (stereo not drawn)	inconclusive: 17.7%	
COc1ccc(Cc2nc(-c3ccc(-n4cccc4)cc3)no2)cc1OC		inconclusive: 10 µM [rising, partial curve]
CCCc1cc(N2CCCC2)n2nc(C)c(-c3ccccc3)c2n1		inconclusive: 1.58 µM [rising, full curve, poor fit]
CC(=O)c1c(COC(=O)c2ccco2)nc2ccccc2[n+]1[O-]	inconclusive: -5.87%	
CCOC(=O)c1cnc(-n2nc(C)cc2C)nc1N(CC)CC	inconclusive: 16%	
O=S(=O)(c1cccs1)N1CN(CC2CCCO2)c2nc3ccccc3nc21 (stereo not drawn)	inconclusive: 24.1%	
O=c1cc(CSc2nnc(COc3ccc(Cl)cc3)o2)c2ccccc2[nH]1		inconclusive: 10 µM [rising, single point]
O=C(CSc1nc2scc(-c3ccco3)c2c(=O)n1-c1ccccc1)NCC1CCCO1 (stereo not drawn)		inconclusive: 25.1 µM [falling, single point]
CP(=O)(COC(=O)c1ccccc1)COC(=O)c1ccccc1	inconclusive: 4.97% [at 7.6 µM]	
O=C(Nc1ccccc1C(F)(F)F)N1CCCCCC1		inconclusive: 0.1 µM [rising, full curve, poor fit]
COCC(=O)N1CCC2(CCCN(C(=O)Nc3cccc(C#N)c3)C2)CC1		inactive
COc1ccc(CNC(=O)C(C#N)c2nc3ccccc3nc2N2CCN(C)CC2)cc1 (stereo not drawn)	inconclusive: -0.0176%	
O=c1oc2c(CN3CCCCCC3)c(O)ccc2cc1-c1nc2ccccc2[nH]1		inconclusive: 5.01 µM [rising, partial curve]
Cc1nc2cncnc2n(Cc2ccccc2)c1=O	inconclusive: 22.1%	
Cc1ccc(-c2nc(NC(=O)CSc3nnc4scc(-c5ccccc5)n34)ns2)cc1		inconclusive: 5.01 µM [rising, partial curve]
O=C(Nc1ccc(-c2nnc(-c3ccccc3)o2)cc1)c1ccc(Br)o1		inactive
Cn1nnnc1SCc1ccccc1F		inactive
CC(C)c1cc(C(N)=O)c(NC(=O)C2CCC2)s1		inconclusive: 12.6 µM [rising, single point]
Cc1ccc2c(CC(=O)Nc3c(C)n(C)n(-c4ccccc4)c3=O)coc2c1		inactive
O=C(Nc1ccc(Cl)cc1C(=O)NCC1CCCO1)c1ccco1 (stereo not drawn)	inconclusive: 24.1%	
C=CCn1c(N2CCCCCC2)nc2c1c(=O)[nH]c(=O)n2C		inconclusive: 12.6 µM [rising, partial curve]
O=C(NCCc1ccc(Cl)cc1)c1ncn[nH]1		inactive
CN1CCc2c(sc3c2C(=O)NC(c2ccco2)N3)C1 (stereo not drawn)		active: 12.6 µM

SMILES	activity change, negative = inhibition	Potency
CCOc1ncccc1C(=O)NCC1COc2ccccc2O1 (stereo not drawn)		active: 3.98 µM
O=S1(=O)CCN2C=C(Br)C=C(Br)C2=N1		inactive
O=c1c2cccc3c(N4CCOCC4)ccc(c32)c2nc3ccccc3n12	inconclusive: -3.59%	
CC(=O)Nc1ccc(Cc2ccc3[nH]c(=O)cc(C)c3c2)cc1		inconclusive: 5.01 µM [rising, single point]
CCOc1ccc(NS(=O)(=O)c2ccc(OCC(=O)N3CCCC3)cc2)cc1	inconclusive: -3.59%	
Cc1ccnc(NS(=O)(=O)c2cccc3nsnc23)c1		inactive
COc1ccc(-c2cc(C(F)(F)F)n3nc(C(=O)NCc4ccco4)cc3n2)cc1		inconclusive: 10 µM [rising, partial curve]
COCC(=O)Nc1ccc(N(C)C)cc1		inactive
COc1ccc(C2C(C(=O)N3CCN(c4ccccc4)CC3)c3ccccc3C(=O)N2C)cc1OC (stereo not drawn)		inconclusive: 10 µM [falling, partial curve]
O=C(O)CSc1nc(-c2ccccc2)nc2c1oc1ccccc12	inconclusive: 28.4%	
CC1CCCC(NC(=O)CN2CCN(Cc3ccc(Cl)cc3)C2=O)C1C (stereo not drawn)	inconclusive: -0.0749%	
C=C(C)OC(C)=O		inactive
Cc1ccc2c(c1)c1c(n2CC(O)Cn2c(C)nc3ccccc32)C(=O)CCC1 (stereo not drawn)		inactive
Cc1c(NC(=O)NC(C)N2C(=O)C3C4C=CC(C4)C3C2=O)c(=O)n(-c2ccccc2)n1C (stereo not drawn)		inactive
CCOc1cccc2cc(-c3nnc(NCc4ccco4)s3)c(=O)oc12	inconclusive: 28%	
N#CCCn1c(=O)c(-c2cc(F)cc(F)c2)nc2cnc(N3CCOCC3)nc21		inconclusive: 3.16 µM [rising, full curve]
Cc1nc(SCC(=O)Nc2ccc(F)cc2)c2oc3ccccc3c2n1		active: 0.631 µM
O=C(Nc1ccccn1)c1cccc(S(=O)(=O)N2CCOCC2)c1		inactive
O=c1c(-c2ccc(F)cc2)nc2cnc(N3CCNCC3)nc2n1Cc1cccs1		inconclusive: 0.398 µM [rising, full curve]
COCCn1cc(C(=O)NCc2cccs2)c2c3ccccc3n(C)c2c1=O	inconclusive: 18.8%	
Cc1ccc(Nc2cc(C)nn2-c2nc(C)cc(C)n2)cc1		inconclusive: 25.1 µM [rising, single point]
CCN(CCCn1c(=S)[nH]c2ncccc2c1=O)c1ccccc1	inconclusive: 5.61%	
CC1CCCCN1S(=O)(=O)c1ccc2c(c1)CCN2C(=O)C1CCC1 (stereo not drawn)		inconclusive: 10 µM [rising, partial curve]
O=C(Nc1nccs1)C1CCCN(S(=O)(=O)c2cccc3cccnc23)C1 (stereo not drawn)	inconclusive: -20.7%	
COc1ccccc1N1CCN(S(=O)(=O)c2cnc[nH]2)CC1		inactive
Cn1c(Sc2ccc(-c3cccnc3)n2C)ccc1-c1cccnc1	inactive: -5.44% [at 7.6 µM]	
